The assay deals with cough iinduced by citric acid in the guineapig. Nature of the assay: anti-cough activity: cough induced by citric acid in the guineapig.
Setting [1] is: with respect to the controls, dose 1 mM/kg/i.p.

Data on 3 compounds can be found in patent EP0184861A1, “Derivatives of the 3-mercapto-2-oxo-1-pyrrolidinacetic acid, process for their preparation and pharmaceutical compositions containing them” (PROTER S.p.A., priority 1984, dated 1986).

Turning to `O=C(O)CN1CCC(S)C1=O` (stereo not drawn) [V, 3-mercapto-2-oxo-1-pyrrolidinyl acetic acid], the “reduction of the cough” value under setting [1] worked out at 74%.

Take `O=C(O)CN1CCC(SC(=O)c2cccs2)C1=O` (stereo not drawn) [VI, 3-(2-thenoylthio)-2-oxo-1-pyrrolidinyl acetic acid]: the “reduction of the cough” value under setting [1] worked out at 68.50%.

Take `COc1ccc2c3c1O[C@H]1[C@@H](O)C=C[C@H]4[C@@H](C2)N(C)CC[C@@]341` [codeine phosphate, reference compound]: the “reduction of the cough” value (dose 5 mg/kg i.p.) stood at 87.00%.
